From article PMC4336329 (PLoS ONE, 2015)
In all, about 310,000 compounds went through this assay and about 2,200 (0.71%) showed an effect of 50% or more. Effects have a minus sign here. Some of the results follow.

The compounds below were run against human ether-à-go-go-related gene (hERG) potassium channel (human, UniProt Q12809) (assay: primary screen, population patch clamp on CHO cells stably expressing hERG).
Sequence of human ether-à-go-go-related gene (hERG) potassium channel (Q12809 whole entry, looked up): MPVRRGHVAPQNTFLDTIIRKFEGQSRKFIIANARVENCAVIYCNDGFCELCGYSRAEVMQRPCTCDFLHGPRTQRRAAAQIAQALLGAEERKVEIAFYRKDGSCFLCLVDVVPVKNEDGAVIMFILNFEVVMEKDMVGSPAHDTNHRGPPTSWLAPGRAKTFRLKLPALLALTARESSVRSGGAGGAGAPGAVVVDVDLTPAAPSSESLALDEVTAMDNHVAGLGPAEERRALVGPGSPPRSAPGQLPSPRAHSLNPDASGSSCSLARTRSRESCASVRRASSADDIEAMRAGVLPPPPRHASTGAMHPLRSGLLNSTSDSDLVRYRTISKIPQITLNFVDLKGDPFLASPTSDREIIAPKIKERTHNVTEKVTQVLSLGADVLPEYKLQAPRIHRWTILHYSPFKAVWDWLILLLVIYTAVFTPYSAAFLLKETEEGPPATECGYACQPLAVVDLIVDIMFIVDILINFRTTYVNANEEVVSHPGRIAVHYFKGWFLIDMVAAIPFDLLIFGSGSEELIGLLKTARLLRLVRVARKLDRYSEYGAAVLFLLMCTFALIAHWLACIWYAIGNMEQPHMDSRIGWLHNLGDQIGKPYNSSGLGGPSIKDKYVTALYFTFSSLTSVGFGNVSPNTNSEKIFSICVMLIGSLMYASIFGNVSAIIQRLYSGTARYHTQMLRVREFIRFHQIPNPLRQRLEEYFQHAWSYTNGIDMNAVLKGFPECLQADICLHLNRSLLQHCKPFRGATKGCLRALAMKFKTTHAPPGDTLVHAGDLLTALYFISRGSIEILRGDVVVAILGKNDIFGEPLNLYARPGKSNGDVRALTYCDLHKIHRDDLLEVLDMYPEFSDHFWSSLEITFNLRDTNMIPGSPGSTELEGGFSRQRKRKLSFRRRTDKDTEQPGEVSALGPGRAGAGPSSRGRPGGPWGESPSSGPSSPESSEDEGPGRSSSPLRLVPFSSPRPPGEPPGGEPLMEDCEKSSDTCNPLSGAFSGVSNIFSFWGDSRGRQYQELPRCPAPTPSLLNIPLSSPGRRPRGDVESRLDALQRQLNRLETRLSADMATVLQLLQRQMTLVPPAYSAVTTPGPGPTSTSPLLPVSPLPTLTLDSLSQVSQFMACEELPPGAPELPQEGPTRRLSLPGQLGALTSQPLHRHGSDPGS

Row | SMILES | hERG current change (%, negative = inhibition) at 1uM [%]
1 | CN(C)S(=O)(=O)Oc1ccsc1C(=O)Nc1ccc(Cl)c(Cl)c1 | 16.9
2 | CCN(CC)c1ccc(/C=N/NC(=O)CCC(=O)NCc2ccccc2)c(O)c1 | 20.6
3 | Nc1c(-c2ccc(Cl)cc2)cnn1-c1cccc(C(F)(F)F)c1 | 12.8
4 | O=C1c2ccccc2C(O)(Cc2ccccc2)N1CCCN1CCOCC1 (stereo not drawn) | 14.3
5 | COC(=O)Cc1c(C)nc2nc(-c3cccnc3)[nH]n2c1=O | 16.5
6 | Cc1nc(NC(=O)CSc2nccn2C)sc1C(=O)N(C)C | 10.5
7 | CCOC(=O)CN(c1ccccc1C)S(=O)(=O)c1ccc(Cl)cc1 | -3.59
8 | CCn1nc(C(=O)OCC(=O)NC(C)C)c2ccccc2c1=O | 9.96
9 | O=C(CSc1ccc(-c2ccco2)nn1)c1ccccc1 | 7.08
10 | O=C(NCCN1CCNC1=O)C1CCC(=O)N(CCc2ccccc2)C1 (stereo not drawn) | 6.81
11 | Cc1oc(-c2ccccc2F)nc1CS(=O)CC(=O)NCc1ccc(Cl)cc1 (stereo not drawn) | -0.439
12 | CCn1ccc(C(=O)Nc2ccccc2Cl)n1 | 7.26
13 | Cc1sc(NC(=O)CSc2nc(N)n(CC(=O)c3ccccc3)n2)c(C#N)c1C | 7.69
14 | COc1cccc(C(=O)OCn2nnc3ccccc3c2=O)c1OC | 15.7
15 | CC(=O)c1ccc(N2CCN(C(=O)COc3ccccc3F)CC2)c(F)c1 | -11.1
16 | COc1cccc(CNC(=O)C2CCN(S(=O)(=O)c3ccc(-n4cnnn4)cc3)CC2)c1 | -14
17 | Cc1nc(SCCC(C)C)c([N+](=O)[O-])[nH]1 | 12.9
18 | O=C(CNC(=O)c1nc[nH]c1C(=O)N1CCN(c2ccccc2)CC1)OCc1ccccc1 | -4.06
19 | O=C(O)c1cccc(CSc2nnc(-c3ccco3)o2)c1 | 13.9

Row | SMILES | hERG current change (%, negative = inhibition) at 1uM [%]
20 | O=C(NCCN1CCOCC1)c1cnn2c(-c3ccccc3)cc(-c3ccccc3)nc12 | -11.5
21 | COc1cccc(NC(=O)CSc2nnc(-c3ccoc3C)n2C)c1 | 13.1
22 | O=C1C=C(c2ccc3c(c2)OCO3)C[C@@H](c2ccc(F)cc2)C1 | 16.3
23 | COc1cc(CN2CCC(Oc3cc(C(=O)NC4CC4)ccc3OC)CC2)cc(OC)c1 | -62
24 | Cc1noc(C)c1COC(=O)Cn1c(C)nc2ccccc21 | 12.1
25 | CCOc1ccccc1N(CC(=O)Nc1ccc(S(=O)(=O)N2CCCC2)cc1)S(C)(=O)=O | -1.6
26 | CC1CCC(NC(=O)c2ccc(CNc3c(NC4CCCCC4)c(=O)c3=O)cc2)CC1 (stereo not drawn) | 11.7
27 | O=C(NC(=O)c1ccccc1)Nc1ccc(Cl)cn1 | 8.42
28 | COc1ccnc(CN(C)C(=O)C2CCC(=O)N(Cc3cccc(C(F)(F)F)c3)C2)c1 (stereo not drawn) | 1.07
29 | Cl.NCCCCCc1nnc(SCc2ccc(Cl)cc2Cl)o1 | 1.56
30 | COc1cc(-c2noc(C)c2-c2ccc3[nH]ccc3c2)cc(OC)c1OC | 17.7
31 | NC(=O)C1=C[C@@H](C2CCCCC2)C[C@@H](OCc2ccc(CO)cc2)O1 | 0.0716
32 | O=C(/C=C/c1ccccc1)N(Cc1ccc(Cl)cc1)C1CCS(=O)(=O)C1 (stereo not drawn) | 5.2
33 | Cc1cccc(OCC(=O)Nc2ccccc2C(F)(F)F)c1 | 4.97
34 | Cc1cc(=O)c(C(=O)Nc2cccc(N3CCCC3=O)c2)nn1-c1ccccc1Cl | 3.17
35 | O=C(N/N=C/c1cccc2cccnc12)[C@H]1C[C@@H]1c1ccccc1 | 11.7
36 | Cc1ccccc1Cn1cc(NC(=O)c2noc(C(C)C)c2[N+](=O)[O-])cn1 | 16.4
37 | COC(=O)c1ccc(NC(=O)c2ccc(N(C)S(C)(=O)=O)cc2)cc1 | 3.32
38 | Cn1cccc1C(=O)NC(=O)COC(=O)c1cc(S(=O)(=O)N2CCCCC2)ccc1Cl | 18

Row | SMILES | hERG current change (%, negative = inhibition) at 1uM [%]
39 | CC(C)CC(=O)Nc1cccc(NC(=O)c2ccccc2Cl)c1 | -8.98
40 | N#Cc1ccc(N2CCN(C(=O)c3cccc(F)c3)CC2)c(F)c1 | -45.1
41 | Cc1ccc(/C(O)=C2\C(=O)C(=O)N(CC(C)O)C2c2cccc(F)c2)cc1 (stereo not drawn) | 23.9
42 | CCCCN(CCCC)Cc1cc2ccccc2c2c1COC2 | -15.4
43 | Cc1ccc(C(=O)Nc2nc(=O)[nH]s2)cc1 | 7.77
44 | Cc1ccc(-c2csnn2)cc1 | 9.29
45 | Cn1c(CO)cnc1SCc1ccc(F)cc1 | 14.8
46 | Cc1ccc(-c2noc(Cn3nc(C(=O)O)c4ccccc4c3=O)n2)cc1 | 20.1
47 | CCOc1ccc(S(=O)(=O)N2CCN(c3ccccn3)CC2)cc1 | 6.28
48 | COc1ccc(OC)c(NC(=O)c2ccc(CN3CCc4ccccc4C3)cc2)c1 | 9.55
49 | CCOc1ccccc1N1CCN(C(=O)c2c(CC)noc2C)CC1 | 10.3
50 | COc1cc(OC)c(S(=O)(=O)N2CCN(C(=O)c3ccccc3F)CC2)cc1NC(C)=O | 3.87
51 | Cc1cccc(C)c1NC(=O)C/C(N)=N/O | 2.58
52 | COc1ccc(CCNC(=O)C/C(C)=N/NC(=O)COc2ccc(C)cc2Br)cc1OC | -15.1
53 | CCCCn1c(N)c(N(CC(C)C)C(=O)C2CCN(S(=O)(=O)c3ccc(F)cc3)CC2)c(=O)[nH]c1=O | 5.71
54 | COc1cccc(NC(=S)N(CCCN2CCOCC2)C(C)c2cc3ccccc3o2)c1 (stereo not drawn) | 10.6
55 | OCCC1CN(Cc2cnc(-c3ccccc3)s2)CCN1Cc1ccccc1 (stereo not drawn) | 1.93
56 | c1ccc(-c2cn3c(n2)CCC3)cc1 | 6.71
57 | Cc1ccc(NC(=S)NCc2ccc(F)cc2)cc1 | 6.2
